Where “and” joins values, the source holds several entries; their conditions need not be identical. Equal entries are not always repeated. In all, about 410,000 compounds went through this assay and about 7,200 (1.8%) were called active. This list was built around the results that the source calls inconclusive (neither active nor inactive); the mix of calls is not that of the screen. Calls follow the shape of the dose curve; as a rule, active = well fitted activation curve with a large enough effect; inconclusive = small, poorly fitted or top-dose-only effect, or another doubt; inactive = no such curve, though single readings can be large or run the other way. Potencies beside an inconclusive call are fits to weak or partial responses and may not hold up.
Test: qHTS of TDP-43 Inhibitors; also: nearly all actives have a fitted effect of over 50% in size; as to growth rescue (activation): % of control where 0% means no effect
Conditions: TDP-43 expressing yeast growth rescue, BacTiter-Glo, 24 h; growth rescue (activation): at 46.1 µM (top of the series) unless noted
How it was run: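 Readout is BacTiter-Glo luminescence of cell growth, so inhibitors register as activators. TDP-43-expressing yeast at OD600=0.02 in galactose medium, after raffinose pregrowth to mid-log, were incubated with compound for 24 hr at 30 deg C.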
For `CC(=O)c1ccc(NC(=O)COC(=O)CCC2CCCC2)cc1`, the Potency was inconclusive: 10 µM [activator, partial curve]. For `CC1CCN(S(=O)(=O)c2ccc3c(ccn3CCC(=O)NCc3ccc(N(C)C)cc3)c2)CC1`, the Potency was “inactive”. In the case of `CCc1ccccc1NC(=O)N1CCN(C(=O)c2nsc3ccccc23)CC1`, the Potency is reported as “inactive”. With `O=C(Nc1ccc(F)c(Cl)c1)C1CCCN(c2cnccn2)C1` (stereo unspecified) the Potency was “inactive and inconclusive: 31.6 µM [activator, single point]”. In the case of `CC(=O)Nc1cc(-c2cccc(C(=O)NCCO)c2)cn2c(-c3ccc(F)cc3)cnc12`, the Potency is reported as inconclusive: 0.562 µM [activator, full curve, poor fit]. For `Cc1ccc(NC(=O)c2nc[nH]c2C(=O)NCc2ccccc2)cc1`, the Potency was inconclusive: 0.316 µM [activator, full curve, poor fit]. For `O=C(CSc1ccc(-c2nc3ccccc3[nH]2)cn1)Nc1ccc2c(c1)OCCO2`, the Potency was “inactive”. With `O=C(/C=C/c1ccc2c(c1)OCO2)c1ccco1` the Potency was active: 15.8 µM. In the case of `CCc1ccc(N2C(=O)CN(Cc3cc(OC)c(OC)c(OC)c3)C2=S)cc1`, the Potency is reported as inconclusive: 0.631 µM [activator, partial curve, poor fit]. For `COc1ccc(Cl)cc1NC(=O)CSc1cn(CC(=O)N2CCCCCC2)c2ccccc12`, the Potency was inconclusive: 0.708 µM [activator, full curve, poor fit]. In the case of `Cc1ccc(-c2nnc3ccccc3c2C(=O)Nc2ccccc2F)cc1`, the Potency is reported as “inactive”. In the case of `CCOC(=O)c1cnc2ccc(OCC)cc2c1N1CCN(C)CC1`, the Potency is reported as “inactive”. In the case of `CCS(=O)(=O)N1CCc2cc(C(=O)NCCc3ccc(OC)cc3)ccc21`, the Potency is reported as “inactive”. For `CC(=O)N(O)c1ccc(C=Cc2ccccc2)cc1`, the Potency was active: 14.1 µM. In the case of `N/C(Cc1ccc([N+](=O)[O-])cc1)=N\OC(=O)c1ccccc1Br`, the growth rescue (activation) is reported as inconclusive: -91.4% [activator]. In the case of `CCc1nc2c(OCCC3CCCCC3)cccn2c1N(C)C(=O)c1ccc(OC)cc1`, the Potency is reported as “inactive”. For `COC1=C(Nc2ccc(O)cc2)C(=O)c2ccccc2C1=O`, the Potency was inconclusive: 12.6 µM [activator, partial curve]. For `O=C(CSc1ccc2c(c1)OCCO2)Nc1ncc(Cl)cc1Cl`, the growth rescue (activation) was inconclusive: 36.1% [activator]. For `Cc1nc(NC(=O)c2ccccc2)sc1-c1csc(NCc2ccccc2)n1`, the Potency was inconclusive: 20 µM [activator, partial curve]. For `CC(C)(C)C(=O)NC(=S)Nc1cc(C(F)(F)F)ccc1N1CCOCC1`, the Potency was “inactive”. With `O=C1[C@@H]2[C@@H]3C[C@@H]([C@H]4ON=C(c5ccc(Cl)cc5Cl)[C@@H]34)[C@@H]2C(=O)N1C1CCCCC1` the Potency was “inactive”. For `COc1ccc(NC(=O)c2c(NCc3cccc(OC)c3)sc3c2CCCC3)cc1`, the Potency was “inactive”. For `COc1cc(/C=N/Nc2ccc(C(F)(F)F)cn2)ccc1O`, the Potency was inconclusive: 35.5 µM [activator, partial curve, poor fit]. For `Clc1cccc(CSc2ccc(-c3ccco3)nn2)c1`, the Potency was inconclusive: 3.55 µM [activator, partial curve]. For `Cc1nc(-n2[nH]c3c(c2=O)CCCC3)[nH]c(=O)c1Cc1ccccc1`, the Potency was active: 10 µM. With `Cc1ccc2occ(CC(=O)N(Cc3ccc(C(C)C)cc3)C3CCS(=O)(=O)C3)c2c1` (stereo unspecified) the Potency was inconclusive: 20 µM [activator, partial curve]. In the case of `O=C(Nc1cccc(Cl)c1)ON=C1c2ccccc2-c2ccccc21`, the Potency is reported as inconclusive: 31.6 µM [activator, single point]. With `Cc1cccc(C)c1OCCn1nnc2ccccc21` the Potency was active: 17.8 µM. For `COc1ccc(C(=O)CN2C(=O)c3ccccc3S2(=O)=O)cc1Br`, the Potency was inconclusive: 2.24 µM [activator, single point]. With `O=C(CCOc1ccccc1)N(Cc1cccnc1)c1nc2c(F)cccc2s1` the Potency was “inactive”. In the case of `CC1=C(C#N)C(=O)NC(=O)/C1=C\c1ccc(-c2ccc(C)cc2[N+](=O)[O-])o1`, the Potency is reported as active: 31.6 µM. With `Cc1cc2oc(=O)cc(CN3CCCC3)c2cc1C` the Potency was inconclusive: 0.0355 µM [activator, full curve]. For `COc1ccc(CNc2nc3ccc(C)cc3s2)c(OC)c1OC`, the Potency was inconclusive: 28.2 µM [activator, single point]. With `CC(=O)Nc1cccc(-c2ccnc3c2CC(C(=O)NCCC(F)(F)F)O3)c1` (stereo unspecified) the Potency was inconclusive: 10 µM [activator, partial curve, poor fit]. With `CC(C)S(=O)(=O)c1csc(NC(=O)Nc2cc(Cl)ccc2Cl)c1Cl` the Potency was inconclusive: 35.5 µM [activator, single point]. With `CC1CN(C(=O)C2CCCC2)C(C)CN1C(=O)C1CCCC1` (stereo unspecified) the Potency was inconclusive: 2.51 µM [activator, full curve, poor fit]. In the case of `COC(=O)c1ccc2c(c1)C(C)(C)C(/C=C/c1ccccc1O)=[N+]2C`, the Potency is reported as “inactive”. With `CC(C)(C)c1ccc(-c2nc(SCC(=O)Nc3ccccc3F)n3[nH]c(=O)cc3n2)cc1` the Potency was “inactive”. In the case of `CC(/C=C1\SC(=S)N(NS(=O)(=O)c2ccccc2)C1=O)=C\c1ccccc1`, the Potency is reported as inconclusive: 35.5 µM [activator, single point]. With `Cc1ccccc1NC(=O)c1c(C)oc2ccc(O)c(CN3CCN(C)CC3)c12` the Potency was “inactive”. In the case of `CC1=C(C(=O)N(C(C)C)C(C)C)CC(CC(=O)NCc2cccs2)C(=O)N1Cc1ccccc1` (stereo unspecified), the Potency is reported as inconclusive: 0.355 µM [activator, full curve, poor fit]. With `O=C(OCn1nnc2ccccc2c1=O)c1ccc2ncsc2c1` the Potency was active: 11.2 µM. In the case of `Cc1cccc(N2CCN(C(=S)NCc3ccco3)CC2)c1C`, the Potency is reported as inconclusive: 17.8 µM [activator, single point]. With `CC(=O)Nc1ccc(NC(=O)C2Cc3c(-c4cccc(F)c4)ccnc3O2)cc1` (stereo unspecified) the Potency was inconclusive: 0.631 µM [activator, full curve]. In the case of `O=C(Nc1cccc(Br)c1)c1cc2ccccc2o1`, the Potency is reported as inconclusive: 14.1 µM [activator, single point]. With `CSc1ccc(CSCC(=O)N2CCN(S(=O)(=O)c3ccc(C)cc3C)CC2)cc1` the Potency was inconclusive: 14.1 µM [activator, partial curve].

— PubChem BioAssay AID652104 (National Center for Advancing Translational Sciences (NCATS), 2013)
Potency is read from the fitted curve at half-maximal effect; tags tell the direction and shape of the fitted curve.
